From article PMC4336329 (PLoS ONE, 2015)
In all, about 310,000 compounds went through this assay and about 14,000 (4.5%) showed an effect of 50% or more. The effect is printed as a negative number. The list shows a part of the results.

Target: human ether-à-go-go-related gene (hERG) potassium channel (human, UniProt Q12809)
Experiment: primary screen, population patch clamp on CHO cells stably expressing hERG
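Note: peak tail current of the secondary pulse compared with the same well before compound.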

Chain of human ether-à-go-go-related gene (hERG) potassium channel (Q12809 whole entry, looked up): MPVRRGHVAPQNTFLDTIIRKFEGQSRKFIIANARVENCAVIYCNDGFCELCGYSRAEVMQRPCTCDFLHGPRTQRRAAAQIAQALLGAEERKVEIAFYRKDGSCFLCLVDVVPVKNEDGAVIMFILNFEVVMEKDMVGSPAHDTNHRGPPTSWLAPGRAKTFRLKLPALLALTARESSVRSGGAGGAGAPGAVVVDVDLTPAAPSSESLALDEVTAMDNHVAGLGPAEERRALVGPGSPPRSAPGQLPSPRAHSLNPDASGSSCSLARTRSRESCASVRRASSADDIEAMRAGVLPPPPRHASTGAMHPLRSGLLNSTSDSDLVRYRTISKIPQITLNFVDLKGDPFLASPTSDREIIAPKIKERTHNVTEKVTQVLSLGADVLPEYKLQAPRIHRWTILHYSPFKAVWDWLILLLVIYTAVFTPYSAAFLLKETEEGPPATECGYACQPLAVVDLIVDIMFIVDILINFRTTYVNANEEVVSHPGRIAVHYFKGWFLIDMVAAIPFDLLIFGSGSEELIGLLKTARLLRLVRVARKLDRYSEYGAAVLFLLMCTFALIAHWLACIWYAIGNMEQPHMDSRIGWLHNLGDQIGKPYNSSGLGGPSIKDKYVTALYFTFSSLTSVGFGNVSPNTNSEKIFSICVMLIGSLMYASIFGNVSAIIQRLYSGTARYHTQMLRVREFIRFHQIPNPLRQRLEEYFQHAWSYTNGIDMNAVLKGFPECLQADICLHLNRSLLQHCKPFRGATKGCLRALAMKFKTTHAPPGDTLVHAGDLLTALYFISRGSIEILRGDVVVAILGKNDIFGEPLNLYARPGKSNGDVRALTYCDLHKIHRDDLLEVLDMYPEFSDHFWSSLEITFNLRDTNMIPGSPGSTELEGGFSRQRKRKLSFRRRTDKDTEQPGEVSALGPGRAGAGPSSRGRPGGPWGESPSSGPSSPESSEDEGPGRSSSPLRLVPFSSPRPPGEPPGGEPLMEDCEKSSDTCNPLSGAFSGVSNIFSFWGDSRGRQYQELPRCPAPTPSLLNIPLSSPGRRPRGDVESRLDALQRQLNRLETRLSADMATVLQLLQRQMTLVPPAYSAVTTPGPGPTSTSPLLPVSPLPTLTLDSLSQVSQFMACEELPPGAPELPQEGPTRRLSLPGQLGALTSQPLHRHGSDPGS

| Compound | hERG current change (%, negative = inhibition) at 10uM [%] |
| --- | --- |
| O=C(NC1CCCCC1)c1ccc(-n2cnnn2)cc1 | -1.57 |
| C/C(=N\Nc1cccc2ccccc12)c1c(O)n(Cc2ccccc2)c(=O)[nH]c1=O | 19.9 |
| Cc1ccc(OCC(O)CNS(=O)(=O)c2ccccc2C(=O)O)cc1 (stereo not drawn) | -2.72 |
| O=C1CN(C(=O)COC(=O)C23CC4CC(CC(O)(C4)C2)C3)c2ccccc2N1 | 2.04 |
| Cl.O=C(CN1CCOCC1)n1c2c(c3ccccc31)CCCC2 | -6.9 |
| COc1ccc(C)cc1S(=O)(=O)N(CC(=O)O)c1ccccc1 | 10.6 |
| O=C(COC(=O)CCS(=O)(=O)c1ccccc1)Nc1ccccc1 | -7.09 |
| O=C(c1ccco1)n1nc(-c2ccccc2)nc1SCc1ccccc1 | 3.93 |
| O=C(CN1CCCCC1)NCC(=O)Nc1ccc(F)c(F)c1F | 7.49 |
| O=C(CN1CCN(C/C=C/c2ccccc2)CC1)NC(=O)NC1CCCCC1 | -74.8 |
| C=C1CCC2[C@](C)(CO)[C@H](O)CC[C@@]2(C)[C@@H]1C/C=C1\C(=O)OC[C@H]1O (stereo partly drawn) | 18.9 |
| CCC(C)[C@H](NC(=O)N1CCCCCC1)C(=O)OC (stereo partly drawn) | 5.25 |
| CCc1cc(C(=O)NCC(c2ccco2)N2CCCCC2)sc1C (stereo not drawn) | -18.5 |
| Cc1cc(=O)c2ccccc2[nH]1 | -5.12 |
| C=CCn1c(SCC(=O)NCc2ccco2)nc2ccccc2c1=O | -50.3 |
| COc1ccc(C)cc1NCc1cc(=O)oc2cc(-c3ccccc3)c(O)cc12 | 13.1 |
| Cc1cc(C)cc(NC(=O)CCc2nc3ccccc3[nH]2)c1 | 7.15 |
| CC(=O)Nc1ccc(NS(=O)(=O)c2ccc3c(c2)n(C)c(=O)n3C)cc1 | 1.94 |
| CCOC(=O)c1ccc(NC(=S)NCc2ccco2)cc1 | -11.1 |
| CCCCCCSc1cccc(-c2nc3cc(C)ccn3c2NCc2ccccc2)c1.O=C(O)C(F)(F)F | 11.1 |
| O=C(NCCc1ccccc1)c1c(O)c2cccc3c2n(c1=O)CC3 | 1.79 |
| COc1cccc(-c2c(C(=O)N/N=C/c3ccncc3)nnn2-c2nonc2N)c1 | -7.69 |

| Compound | hERG current change (%, negative = inhibition) at 10uM [%] |
| --- | --- |
| Cc1c(N2C(=O)C(C)SC23C(=O)Nc2ccccc23)c(=O)n(-c2ccccc2)n1C (stereo not drawn) | 17 |
| Cc1cccc(Cn2c(O)c(N=NC(=S)Nc3ccccc3F)c3ccccc32)c1 | 16.2 |
| Cn1nnc2c[n+](CC(=O)c3ccc4ccccc4c3)cc(Br)c21.[Br-] | -41.9 |
| CC(=O)Oc1c(C)c2c3c(c1OC(C)=O)[C@@H](C)CC[C@@H]3[C@@H](C)C[C@H]2C=C(C)C | -20.8 |
| CC(C)c1ccc(/C=C/C(=O)NC(=S)Nc2ccc(CN3CCOCC3)cc2)cc1 | 22.6 |
| CCOC(=O)C1CCN(Cc2cccc(OC)c2)CC1 | -1.39 |
| C=CCn1c(SCC(=O)NCC2CCCO2)nc2c([nH]c3ccccc32)c1=O (stereo not drawn) | 6.25 |
| COc1ccc(C2NC(=S)NC(C)=C2C(=O)N2CCOCC2)cc1 (stereo not drawn) | 6.23 |
| Cl.Cn1c(=N)n(CC(O)c2cccs2)c2ccccc21 (stereo not drawn) | -39.9 |
| CCSc1ncc(/C=N/Nc2ccccc2)n1C | -4.06 |
| C/C(CC(=O)NCCCN1CCOCC1)=N\NC(=O)COc1ccc(Cl)cc1 | 5.78 |
| CCN(CC(=O)Nc1ccc(OC)cc1)C(=O)c1ccccc1Sc1ccccc1C#N | 1.4 |
| Cc1cc(C)n(CCNC(=O)c2cc(COc3ccc(F)cc3Cl)on2)n1 | -10 |
| O=C(NC1CCCCCC1)c1cccs1 | 3.67 |
| CSc1nc(C)c(CCOC(=O)c2ccccc2)c(=O)[nH]1 | 1.39 |
| COCCn1c(=NC(=O)c2sc3ccccc3c2Cl)sc2cc(S(N)(=O)=O)ccc21 | 18.6 |
| COc1cccc(Nc2nnc(SCC(=O)N3CCOCC3)s2)c1 | -11 |
| COC(=O)c1cn(NC(=O)Cc2cccc(OC)c2)c(=O)c2ccccc12 | 12 |
| O=S(=O)(C=C(c1ccccc1)c1ccccc1)c1ccccc1 | 2.74 |
| CCc1cccc(NC(=O)CN(C)C2=NS(=O)(=O)c3ccccc32)c1 | 12.5 |
| Cc1cc(C)c2nc(N3CCC(C(=O)N4CCCC4)CC3)sc2c1 | -67.7 |
| CCOC(=O)c1cc([N+](=O)[O-])c([N+](=O)[O-])cc1NC(C)=O | 5.46 |

| Compound | hERG current change (%, negative = inhibition) at 10uM [%] |
| --- | --- |
| COc1cccc(OCC(=O)NNC(=O)C(=O)Nc2cccc(C)c2)c1 | 7.35 |
| COc1cc(/C=N/N=C(/N)c2nonc2N)cc(Br)c1OCc1ccccc1C | -0.63 |
| CCC1CCCCN1C(=S)NCc1ccccc1 (stereo not drawn) | -1.29 |
| O=C(c1cccc(S(=O)(=O)N2CCOCC2)c1)N1CCCc2ccccc21 | 9.6 |
| CC1Cc2ccccc2N1S(=O)(=O)c1cnc[nH]1 (stereo not drawn) | 14.2 |
| Cc1ccnc(NC(=O)CCC2CCCCC2)c1 | -3.31 |
| C=CCSc1nsc(N)n1 | 12.5 |
| O=C(Nc1cccc(C(=O)O)c1)/C(=C\c1ccc2c(c1)OCO2)NC(=O)c1ccc(Br)cc1 | 17.9 |
| C[C@@H]1C=C(C(=O)NCc2nc3ccccc3[nH]2)O[C@H](OCc2ccc(CO)cc2)C1 | 3.27 |
| CCS(=O)(=O)c1nc2ccccc2n1Cc1ccccn1 | 3.86 |
| CC(=O)N1CCN(c2ccccc2NC(=O)COc2cc(C)ccc2C(C)C)CC1 | -39.2 |
| O=C(CNC(c1ccccc1)c1ccccc1)Nc1cc([N+](=O)[O-])ccc1Cl | 10.7 |
| CCCCCCOC(=O)c1ccccc1NC(=O)/C=C/C(=O)O | -7.7 |
| CCOC(=O)c1c(-c2ccc(C)cc2)csc1/N=C/N(C)C | 15.3 |
| C/C(CCN1CCc2nc(-c3ccccc3)c(-c3ccccc3)cc2C1)=N\O[C@@H](C)c1cc(-c2c(C)cc(C)cc2C)no1 | 4.08 |
| Cc1ccc(S(=O)(=O)N2[C@@H](c3ccc(Cl)cc3)C(C(=O)O)=CC[C@H]2c2ccc(Cl)c(Cl)c2)cc1 | 11.1 |
| Cc1ccccc1NC(=O)CC(O)(C(F)(F)F)C(F)(F)F | -14.7 |
| CCc1ccccc1NC(=O)CN1CCN(C(=O)COc2ccccc2C#N)CC1 | -34.6 |
| Cc1ccccc1NC(=O)CSc1nnc(C2CC2)n1CC1CCCO1 (stereo not drawn) | 7.52 |
| O=C(COc1ccc(S(=O)(=O)N2CCOCC2)cc1Cl)NC1CCCCC1 | -19.4 |
| CC1(NC(=O)c2cccc(S(=O)(=O)N3CCN(c4ccc(F)cc4)CC3)c2)CCS(=O)(=O)C1 (stereo not drawn) | -29.5 |
| C/C(=N/NC(=O)c1ccncc1)C1=C(O)CC(C)(C)CC1=O | 33.2 |

| Compound | hERG current change (%, negative = inhibition) at 10uM [%] |
| --- | --- |
| Cc1ccc(S(=O)(=O)/C(C#N)=C/c2c(N3CCN(C)CC3)nc3c(C)cccn3c2=O)cc1 | -67.5 |
| COc1ccc(NC(=O)CN(C)C(=O)c2ccc(NS(=O)(=O)c3ccc4[nH]c(=O)[nH]c4c3)cc2)cc1 | 16.1 |
| O=C(NC1CCCCCC1)c1ccc(Br)o1 | 1.18 |
| CCOC(=O)Cn1nnnc1CN1CCN(c2ccc(OC)cc2)CC1 | -16.7 |
| Cc1sc2ncnc(SCC(=O)NCC(C)C)c2c1C | -2.52 |
| Nc1nc(COC(=O)C2CCN(C(=O)c3ccc(Cl)cc3)CC2)nc(Nc2ccccc2)n1 | -67.8 |
| Cc1ccc(S(=O)(=O)N2[C@@H](c3cccc(Cl)c3)C(C(=O)O)=CC[C@H]2c2ccc(Cl)c(Cl)c2)cc1 | 16.2 |
| COc1cccc(OC)c1C(=O)Nc1cccc(C(=O)Nc2cccc(C(=O)O)c2)c1 | 25.5 |
| COc1ccc(Nc2ccccc2NC(=O)c2ccccc2Br)cc1 | 3.05 |
| O=C(O)CCc1nc(-c2ccccc2Cl)no1 | 11.6 |
| COC1(NS(=O)(=O)c2ccc(Br)cc2)C(C)=CC(=O)C=C1C | 32.3 |
| COc1ccc(CC(=O)OCC(=O)NC(=O)NC2CCCCC2)cc1 | -3.87 |
| N#Cc1ccc(CN2CCN(C(=O)CCNS(=O)(=O)c3ccc(F)c(Cl)c3)CC2)cc1 | 3.19 |
| Cc1ccsc1C(=O)OCC(=O)N1CCc2ccccc2C1 | -7.58 |
| CC(c1ccccc1)N(C)C(=O)CN1CCN(S(=O)(=O)c2ccc3c(c2)OCCCO3)CC1 (stereo not drawn) | -5.57 |
| CCn1c2ccccc2c2nnc(SCC(=O)NCc3cccs3)nc21 | -11.4 |
| Cc1cccc(N(C(=O)Cc2cccs2)C(C(=O)NC2CCCC2)c2ccncc2)c1 (stereo not drawn) | 8.83 |
| NC1=NC(=O)/C(=C\c2ccc(-c3ccc(Cl)cc3)o2)S1 | 9.15 |
| [O-][N+]12CC[N+]([O-])(CC1)c1ccccc12 | 4.48 |
| Cc1cc(C)cc(N(CC(=O)NC(C)(C)C)C(=O)CCC(=O)Nc2nccs2)c1 | -3.95 |
| O=C(NCc1ccccc1)c1noc2c1CCCCC2 | -2.31 |
